From a collection of fitness landscapes (doi:10.1126/science.1257360)
The other results are listed elsewhere or left out.

B1: PhoQ; a variant is named by its letters at X, in order, P23837 (parent)
chain: MKKLLRLFFPLSLRVRFLLATAAVVLVLSLAYGMVALIGYSVSFDKTTFRLLRGESNLFYTLAKWENNKLHVELPENIDKQSPTMTLIYDENGQLLWAQRDVPWLMKMIQPDWLKSNGFHEIEADVNDTSLLLSGDHSIQQQLQEVREDDDDAEMTHSVAVNVYPATSRMPKLTIVVVDTIPVELKSSYMVWSWFIYVLSANLLLVIPLLWVAAWWSLRPIEALAKEVRELEEHNRELLNPATTRELTSLVRNLNRLLKSERERYDKYRTTLTDLTHSLKTPLXXLQXXLRSLRSEKMSVSDAEPVMLEQISRISQQIGYYLHRASMRGGTLLSRELHPVAPLLDNLTSALNKVYQRKGVNISLDISPEISFVGEQNDFVEVMGNVLDNACKYCLEFVEISARQTDEHLYIVVEDDGPGIPLSKREVIFDRGQRVDTLRPGQGVGLAVAREITEQYEGKIVAGESMLGGARMEVIFGRQHSAPKDE

Variants of: B1
Assay: enrichment ratio after two sorts for PhoP signalling (ratio (wild type AVST 3.29)); higher = more functional
Conditions: with PhoP (E. coli)

Variant | enrichment ratio
YEDI | ≤ 0.25
DGVS | ≤ 0.25
KAFK | ≤ 0.25
WPPN | ≤ 0.25
SLPW | ≤ 0.25
AVVW | 7.9
YMVA | ≤ 0.25
WSVL | ≤ 0.25
SPWA | ≤ 0.25
DRSN | ≤ 0.25
GNRM | ≤ 0.25
FDAY | ≤ 0.25
PSKP | ≤ 0.25
IGLW | ≤ 0.25
ADNL | ≤ 0.25
PMTR | ≤ 0.25
DWGL | ≤ 0.25
TAPA | ≤ 0.25
PHQY | ≤ 0.25
WSTC | ≤ 0.25
QAKL | ≤ 0.25
TKSF | 1.23
MMMF | ≤ 0.25
TWGM | ≤ 0.25
PLDA | ≤ 0.25

Variant | enrichment ratio
AECV | 21.4
VECR | ≤ 0.25
MKDW | ≤ 0.25
HKQI | ≤ 0.25
ESTK | ≤ 0.25
MEWN | ≤ 0.25
PWNW | ≤ 0.25
YRVC | 0.653
DQSM | ≤ 0.25
LEWT | 12.5
GRDF | ≤ 0.25
KCVK | ≤ 0.25
ALTA | ≤ 0.25
KNCR | ≤ 0.25
YTPC | ≤ 0.25
VQGN | ≤ 0.25
FLAK | ≤ 0.25
KVYN | ≤ 0.25
TYKS | ≤ 0.25
RIGN | ≤ 0.25
PETY | ≤ 0.25
KECF | ≤ 0.25
ECLM | ≤ 0.25
APVN | ≤ 0.25
VRGF | ≤ 0.25

Variant | enrichment ratio
YDCP | ≤ 0.25
TRRK | ≤ 0.25
FLWK | ≤ 0.25
QDMS | ≤ 0.25
YDCH | ≤ 0.25
VAIK | ≤ 0.25
NFNT | ≤ 0.25
DDDV | ≤ 0.25
AIKP | ≤ 0.25
RPQD | ≤ 0.25
VSMV | 9.73
RHQY | ≤ 0.25
EIYS | ≤ 0.25
WENY | ≤ 0.25
WNLE | ≤ 0.25
YPAK | ≤ 0.25
HWQP | ≤ 0.25
AQYM | ≤ 0.25
YWIK | ≤ 0.25
SPCI | 2.03
AKAV | 0.73
HQTQ | ≤ 0.25
QANK | ≤ 0.25
DYCH | ≤ 0.25
HLWL | ≤ 0.25

Variant | enrichment ratio
RWPI | ≤ 0.25
IPMK | ≤ 0.25
DRHI | ≤ 0.25
MNEW | ≤ 0.25
PCPI | ≤ 0.25
QQMS | ≤ 0.25
SMLF | 6.71
ALLC | 1.19
FEKG | ≤ 0.25
LMNH | ≤ 0.25
VRVK | ≤ 0.25
RMCW | ≤ 0.25
FMED | ≤ 0.25
WRQN | ≤ 0.25
LVGR | ≤ 0.25
HKLG | ≤ 0.25
GYRA | ≤ 0.25
TFRV | ≤ 0.25
KSGQ | ≤ 0.25
TDNW | ≤ 0.25
FQCW | ≤ 0.25
ACGY | ≤ 0.25
HCWR | ≤ 0.25
RFSC | ≤ 0.25
HGMT | ≤ 0.25

Variant | enrichment ratio
MPMG | ≤ 0.25
SSKC | ≤ 0.25
YGEG | ≤ 0.25
TSAL | 13
HFAC | ≤ 0.25
TWIC | ≤ 0.25
TEFQ | 8.52
HLLH | ≤ 0.25
PLYL | ≤ 0.25
HHTP | ≤ 0.25
LKEF | ≤ 0.25
HIQG | ≤ 0.25
ALLS | 1.84
YPCI | ≤ 0.25
GQVE | ≤ 0.25
QDIY | ≤ 0.25
LQDH | ≤ 0.25
YQYC | ≤ 0.25
WDVH | ≤ 0.25
EYFP | ≤ 0.25
DKAG | ≤ 0.25
EGVC | ≤ 0.25
DYYQ | ≤ 0.25
DLTF | ≤ 0.25
EDMR | ≤ 0.25

Variant | enrichment ratio
PRFE | ≤ 0.25
PRPQ | ≤ 0.25
PQVI | ≤ 0.25
DRPG | ≤ 0.25
KTLH | ≤ 0.25
PFIK | 2.22
NRWQ | ≤ 0.25
WATK | ≤ 0.25
WFIA | ≤ 0.25
PWIY | ≤ 0.25
YLLT | ≤ 0.25
RVAS | ≤ 0.25
RPGR | ≤ 0.25
DDHW | ≤ 0.25
DAKF | ≤ 0.25
YHTK | ≤ 0.25
KHMV | ≤ 0.25
DCDY | ≤ 0.25
QQRV | ≤ 0.25
HRHP | ≤ 0.25
WQVR | ≤ 0.25
IYTT | ≤ 0.25
QFAI | ≤ 0.25
PDHE | ≤ 0.25
WDSM | ≤ 0.25

Variant | enrichment ratio
NGTY | ≤ 0.25
LHKM | ≤ 0.25
RDRR | ≤ 0.25
NPFY | ≤ 0.25
SHVD | ≤ 0.25
RAIN | ≤ 0.25
MFNS | ≤ 0.25
EFIP | ≤ 0.25
NCFL | ≤ 0.25
TAPI | ≤ 0.25
ARIV | ≤ 0.25
PIRG | ≤ 0.25
NMWH | ≤ 0.25
RACR | ≤ 0.25
SMLR | 1.96
AVNR | ≤ 0.25
FEWA | ≤ 0.25
VTRC | ≤ 0.25
IDRQ | ≤ 0.25
PRIY | ≤ 0.25
MIIN | ≤ 0.25
GYLL | ≤ 0.25
ATIY | 10.1
LQME | ≤ 0.25
AKMG | 18.6

Variant | enrichment ratio
DCWM | ≤ 0.25
RNMY | ≤ 0.25
MSWL | 14.4
YFWN | ≤ 0.25
STQT | ≤ 0.25
PCYE | ≤ 0.25
LYRE | ≤ 0.25
REIF | ≤ 0.25
RIWY | ≤ 0.25
MPMR | ≤ 0.25
MGFV | 4.89
YKRW | ≤ 0.25
PKGP | 4.39
GRGA | ≤ 0.25
TDWP | ≤ 0.25
HHMV | ≤ 0.25
PQMI | ≤ 0.25
YEQV | ≤ 0.25
KNTR | ≤ 0.25
GRGN | ≤ 0.25
